Results on 134 variants are retold here after a collection of fitness landscapes (doi:10.1016/j.celrep.2020.107928).

Over roughly 81,000 sequences, “one-hybrid fitness for binding NBS DNA” has its median near -0.1; the highest 2% begin near 0.36. This is one part of the list.

To fix the notation:
B1: Caulobacter ParB omega fusion; a variant is named by its letters at X, in order, B8GW30 (parent)
chain: MESVVVGEPGMSEGRRGLGRGLSALLGEVDAAPAQAPGEQLGGSREAPIEILQRNPDQPRRTFREEDLEDLSNSIREKGVLQPILVRPSPDTAGEYQIVAGERAWRAAQRAGLKTVPIMVRELDDLAVLEIGIIENVQRADLNVLEEALSYKVLMEKFERTQENIAQTIGKSXSHVANXMRLLXLPDEVQSYLVSGELTAXHARAIAAAADPVALAKQIIEGGLSVRETEALARKAPNLSAGKSKGGRPPRVKDTDTQALESDLSSVLGLDVSIDHRGSTGTLTITYATLEQLDDLCNRLTRGI

Variants of B1 are the subject of the assay. The experiment in a line: one-hybrid fitness for binding NBS DNA (the Noc-binding site; scaled: cognate 1, non-cognate 0); higher = stronger binding. The settings on record: with NBS DNA site. A digest of the protocol:
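Bacterial one-hybrid selection in E. coli USO rpoZ- hisB- pyrF- with a HIS3 reporter carrying the site 19 bp from the promoter, screening Caulobacter ParB libraries with four specificity codons randomised (NNS). Cells grew 48 hours at 37°C on M9-minus-histidine plus 0.1 mM IPTG and 5 mM 3-AT. Plasmids before and after selection were Illumina-sequenced, three replicate libraries pooled, and variants under 10 reads dropped. Fitness is the log change in variant-to-wild-type read ratio, rescaled to cognate 1, non-cognate 0.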
With THSV, the “one-hybrid fitness for binding NBS DNA” value is at most 0.2.
Take VCCW: the “one-hybrid fitness for binding NBS DNA” value is at most 0.2.
As for PPIC, the figure is at most 0.2.
In the case of PEQL it was at most 0.2; in that of RRVA, 0.571; in that of TECA, at most 0.2.
As for MWQG, the “one-hybrid fitness for binding NBS DNA” value was at most 0.2.
For QVQA, the “one-hybrid fitness for binding NBS DNA” value is at most 0.2.
Take HWRC: the “one-hybrid fitness for binding NBS DNA” value is at most 0.2.
As for VWKC, the figure is at most 0.2.
Turning to AYEW, the “one-hybrid fitness for binding NBS DNA” value was at most 0.2.
With STPC, the “one-hybrid fitness for binding NBS DNA” value is at most 0.2.
Turning to SKSP, the “one-hybrid fitness for binding NBS DNA” value is at most 0.2.
As for PYNY, the figure is at most 0.2; as for QGKV, at most 0.2.
Regarding QQFG, the “one-hybrid fitness for binding NBS DNA” value is at most 0.2.
As to FKTL, the “one-hybrid fitness for binding NBS DNA” value is at most 0.2.
Take MDTT: the “one-hybrid fitness for binding NBS DNA” value is at most 0.2.
With PAWT, the “one-hybrid fitness for binding NBS DNA” value is at most 0.2.
EYWG: the “one-hybrid fitness for binding NBS DNA” value is at most 0.2.
Turning to YARS, the “one-hybrid fitness for binding NBS DNA” value is at most 0.2.
Consider RRIS, for which the “one-hybrid fitness for binding NBS DNA” value stood at 0.661.
For PYSY, the “one-hybrid fitness for binding NBS DNA” value is at most 0.2.
Consider KPMC, for which the “one-hybrid fitness for binding NBS DNA” value is at most 0.2.
CCTC: the “one-hybrid fitness for binding NBS DNA” value was at most 0.2.
In the case of QPQN, the “one-hybrid fitness for binding NBS DNA” value was at most 0.2.
Consider YPSV, for which the “one-hybrid fitness for binding NBS DNA” value is at most 0.2.
In the case of TINF, the “one-hybrid fitness for binding NBS DNA” value was at most 0.2.
For the variant LHYF, the “one-hybrid fitness for binding NBS DNA” value is at most 0.2.
In the case of EYES it was at most 0.2; in that of NMTD, at most 0.2; in that of LLSV, at most 0.2.
As for RKLG, the figure is at most 0.2; as for SVPG, at most 0.2.
MMYG: the “one-hybrid fitness for binding NBS DNA” value is at most 0.2.
With RGQI, the “one-hybrid fitness for binding NBS DNA” value was at most 0.2.
RHMN: the “one-hybrid fitness for binding NBS DNA” value is at most 0.2.
In the case of TTWH it was at most 0.2; in that of DKTE, at most 0.2; in that of CSKF, at most 0.2.
Consider CNDW, for which the “one-hybrid fitness for binding NBS DNA” value is at most 0.2.
On to KLQR, for which the “one-hybrid fitness for binding NBS DNA” value is at most 0.2.
Turning to MQMR, the “one-hybrid fitness for binding NBS DNA” value is at most 0.2.
On to EIAS, for which the “one-hybrid fitness for binding NBS DNA” value is at most 0.2.
As for WKPV, the figure is at most 0.2; as for NNAG, at most 0.2; as for TTTM, at most 0.2.
As to DCAC, the “one-hybrid fitness for binding NBS DNA” value is at most 0.2.
In the case of CNDT it was at most 0.2; in that of WYYR, at most 0.2; in that of PWLE, at most 0.2.
On to QCCT, for which the “one-hybrid fitness for binding NBS DNA” value amounted to 0.521.
On to SAVC, for which the “one-hybrid fitness for binding NBS DNA” value is at most 0.2.
Regarding RIFS, the “one-hybrid fitness for binding NBS DNA” value turned out to be 0.214.
For AMDN, the “one-hybrid fitness for binding NBS DNA” value was at most 0.2.
Take ITTY: the “one-hybrid fitness for binding NBS DNA” value was at most 0.2.
On to MHAR, for which the “one-hybrid fitness for binding NBS DNA” value is at most 0.2.
In the case of TCWT, the “one-hybrid fitness for binding NBS DNA” value was at most 0.2.
In the case of QDPP, the “one-hybrid fitness for binding NBS DNA” value was at most 0.2.
Consider NEAT, for which the “one-hybrid fitness for binding NBS DNA” value was at most 0.2.
Regarding RWND, the “one-hybrid fitness for binding NBS DNA” value was at most 0.2.
As for CHLH, the “one-hybrid fitness for binding NBS DNA” value is at most 0.2.
On to VLGP, for which the “one-hybrid fitness for binding NBS DNA” value was at most 0.2.
In the case of VKQT it was at most 0.2.
YSGS: the “one-hybrid fitness for binding NBS DNA” value is at most 0.2.
For LLAF, the “one-hybrid fitness for binding NBS DNA” value is at most 0.2.
Consider ACDV, for which the “one-hybrid fitness for binding NBS DNA” value was at most 0.2.
For the variant RGKG, the “one-hybrid fitness for binding NBS DNA” value is at most 0.2.
Take SGMN: the “one-hybrid fitness for binding NBS DNA” value is at most 0.2.
Consider NDGR, for which the “one-hybrid fitness for binding NBS DNA” value is at most 0.2.
On to IVNM, for which the “one-hybrid fitness for binding NBS DNA” value was at most 0.2.
Regarding KMDG, the “one-hybrid fitness for binding NBS DNA” value is at most 0.2.
As for MRFL, the figure is at most 0.2.
On to LGMR, for which the “one-hybrid fitness for binding NBS DNA” value is at most 0.2.
As to PGNG, the “one-hybrid fitness for binding NBS DNA” value was at most 0.2.
As to MAKG, the “one-hybrid fitness for binding NBS DNA” value is at most 0.2.
In the case of ETER it was at most 0.2.
TTYT: the “one-hybrid fitness for binding NBS DNA” value was at most 0.2.
Consider PTFL, for which the “one-hybrid fitness for binding NBS DNA” value is at most 0.2.
Take QAYC: the “one-hybrid fitness for binding NBS DNA” value is at most 0.2.
For the variant EAPF, the “one-hybrid fitness for binding NBS DNA” value stood at 0.532.
MWLT: the “one-hybrid fitness for binding NBS DNA” value was at most 0.2.
As for FHAP, the “one-hybrid fitness for binding NBS DNA” value was at most 0.2.
On to TKNL, for which the “one-hybrid fitness for binding NBS DNA” value was at most 0.2.
With SVRF, the “one-hybrid fitness for binding NBS DNA” value was at most 0.2.
For the variant QRQF, the “one-hybrid fitness for binding NBS DNA” value came out at 0.323.
For FMLL, the “one-hybrid fitness for binding NBS DNA” value was at most 0.2.
With LGLA, the “one-hybrid fitness for binding NBS DNA” value is at most 0.2.
With QQKV, the “one-hybrid fitness for binding NBS DNA” value amounted to 0.533.
As for AILN, the “one-hybrid fitness for binding NBS DNA” value was at most 0.2.
In the case of TTSE, the “one-hybrid fitness for binding NBS DNA” value is at most 0.2.
KQDV: the “one-hybrid fitness for binding NBS DNA” value is at most 0.2.
As for VHAS, the “one-hybrid fitness for binding NBS DNA” value is at most 0.2.
In the case of SFGI, the “one-hybrid fitness for binding NBS DNA” value is at most 0.2.
As for IHAG, the “one-hybrid fitness for binding NBS DNA” value is at most 0.2.
On to RPCC, for which the “one-hybrid fitness for binding NBS DNA” value is at most 0.2.
For SMMS, the “one-hybrid fitness for binding NBS DNA” value was at most 0.2.
Regarding MNVA, the “one-hybrid fitness for binding NBS DNA” value was at most 0.2.
For AVSF, the “one-hybrid fitness for binding NBS DNA” value is at most 0.2.
As to VLGC, the “one-hybrid fitness for binding NBS DNA” value was at most 0.2.
For the variant PMWS, the “one-hybrid fitness for binding NBS DNA” value is at most 0.2.
For the variant IAPS, the “one-hybrid fitness for binding NBS DNA” value is at most 0.2.
For FPAG, the “one-hybrid fitness for binding NBS DNA” value is at most 0.2.
Consider SCKN, for which the “one-hybrid fitness for binding NBS DNA” value is at most 0.2.
As for HKPC, the “one-hybrid fitness for binding NBS DNA” value is at most 0.2.
As for ANSK, the “one-hybrid fitness for binding NBS DNA” value was at most 0.2.
For the variant GCAC, the “one-hybrid fitness for binding NBS DNA” value was at most 0.2.
As to TAIH, the “one-hybrid fitness for binding NBS DNA” value was at most 0.2.
RIQP: the “one-hybrid fitness for binding NBS DNA” value was at most 0.2.
CNQL: the “one-hybrid fitness for binding NBS DNA” value was at most 0.2.
On to GKLT, for which the “one-hybrid fitness for binding NBS DNA” value was at most 0.2.
On to ACQA, for which the “one-hybrid fitness for binding NBS DNA” value was at most 0.2.
With QIAC, the “one-hybrid fitness for binding NBS DNA” value was at most 0.2.
On to PARY, for which the “one-hybrid fitness for binding NBS DNA” value was at most 0.2.
On to VQLK, for which the “one-hybrid fitness for binding NBS DNA” value is at most 0.2.
In the case of STEG it was at most 0.2; in that of FGHT, at most 0.2.
For the variant WCVN, the “one-hybrid fitness for binding NBS DNA” value is at most 0.2.
In the case of ASYD, the “one-hybrid fitness for binding NBS DNA” value is at most 0.2.
Regarding CTIC, the “one-hybrid fitness for binding NBS DNA” value is at most 0.2.
Turning to MTKG, the “one-hybrid fitness for binding NBS DNA” value is at most 0.2.
For YLLF, the “one-hybrid fitness for binding NBS DNA” value is at most 0.2.
For QSHF, the “one-hybrid fitness for binding NBS DNA” value is at most 0.2.
MVTT: the “one-hybrid fitness for binding NBS DNA” value was at most 0.2.
For DVMF, the “one-hybrid fitness for binding NBS DNA” value is at most 0.2.
Consider PHGL, for which the “one-hybrid fitness for binding NBS DNA” value is at most 0.2.
Turning to YKDM, the “one-hybrid fitness for binding NBS DNA” value was at most 0.2.
In the case of FSNF it was at most 0.2; in that of YTGT, at most 0.2; in that of SAQM, at most 0.2.
For GSYH, the “one-hybrid fitness for binding NBS DNA” value is at most 0.2.
In the case of HPLE it was at most 0.2.
In the case of QSIT, the “one-hybrid fitness for binding NBS DNA” value came to 0.353.
Regarding HSHT, the “one-hybrid fitness for binding NBS DNA” value was at most 0.2.
